Test results as given in the supplement of paper PMC10126150.
Sequences with one replicate were seen in a single cluster, so their values are uncertain.

What follows are sequences tested on ATP (assay: switch fluorescence ratio, 500 uM ATP over buffer (Cy3 cluster intensity, sum of 5 cycles each) (fold (ratio)); higher = stronger signal-on switching upon ATP binding). Details: aptamer strand: ATP DNA aptamer (quencher-CACCTGGGGGAGTATTGCGGAGGAAGG + anchor), 100 nM annealed; ATP concentration: 500 uM; one replicate.
Procedure, shortened: (§1)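 Imaging in selection buffer was followed by imaging after 15 min with 500 uM ATP at 22 °C, for Cy3-labelled switching-strand clusters annealed to 100 nM quencher-labelled ATP aptamer on a modified Illumina MiSeq flow-cell. Five of these buffer/ATP cycles ran, separated by NaOH stripping and re-annealing. The fluorescence ratio per cluster is summed target-cycle over summed buffer-cycle Cy3 intensity, averaged per switch-domain sequence; clusters outside 100-1000 RFU were removed.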
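Note: ATP exposure 15 min at 22 °C before imaging.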

Sequence	switch fluorescence ratio
TCGTCGGCAGCGTCAGATGTGTATAAGAGACAGTTTTTTTTTTTTTTTTTTTTTTTTTTTTC	0.985

What follows are sequences tested on ATP (assay: switch fluorescence ratio, 500 uM ATP over buffer (Cy3 cluster intensity, sum of 5 cycles each) (fold (ratio)); higher = stronger signal-on switching upon ATP binding; sequences stand for … in TCGTCGGCAGCGTCAGATGTGTATAAGAGACAGTTTTTTTTTTTTTTTTTTTTTTTTT…TC). Details: aptamer strand: ATP DNA aptamer (quencher-CACCTGGGGGAGTATTGCGGAGGAAGG + anchor), 100 nM annealed; ATP concentration: 500 uM; one replicate.
Procedure, shortened: as §1

Sequence	switch fluorescence ratio
GCCGAGGAGA	1.01
CCAATACGGA	1.39
GGGGCCGGCC	0.971
AAAGGCTAGG	1.01
TCTGAATTTT	1.02
CGAGGCTCAT	1.07
CTGTAACGGG	1.04
AAACAGTATT	1.07
GTTTAAATTT	0.989
TTCACCAGAA	1
CTGGTTTTTG	0.993
CCTGTTGGAG	0.997
GACCACTCAT	1.04
CGAATGTGTG	0.98
CTAGCGAATT	1
TATAACGGGT	1.04
TGGGATACTA	1.03
ATGCCAGTAG	1.01
CTGATCTCGT	0.975
ATATCTATGC	1.03
CTATAATATC	1.04
ATTGCTTAAT	1.02
CAACAGCCCA	1.05
ATCCGGACTG	1.01

Sequence	switch fluorescence ratio
CAAAATTCGT	0.995
TGAGGAGATA	1.01
GCCCTTTAGA	1.01
TTTTAACTCC	1.07
ATGTGAAACT	1.02
GAGAGGTAGC	1.14
AACGTAAAAG	1.05
TAGGCGATGG	1
GTATTTTTCT	1.04
ACGAGGCCCA	1.05
CGGTACATCG	0.941
AGTCTCGGGC	0.962
CTGTGTTTTG	0.989
GTTGGTCGAT	1.01
TGGGTTCCGT	0.991
ACTGGACTGC	1.2
ATCTAGATTA	1.02
TCGTTTGAGG	0.975
TGCAAACTCG	1.4
AAGAAGCGAG	1.4
ATTGTAGTGA	1.01
TTCAACAGGT	1.1
AAGCTTCGAG	1.01
TGTGGGCCTT	1.03

Sequence	switch fluorescence ratio
TTTATTTCGG	0.995
CGTCGTGGCA	1.08
TACCACCCCA	1.16
AATCACCTGA	1
AATTTATACG	1
ATTTTTACGT	1
GCATTAGTAA	1
CTCGGCGTCA	1.02
CGTACATGA	1.01
GCCCTTGGGG	0.983
GTGCTAAGCG	1.03
AATCTCTTAA	0.983
TTGTGCGTCC	1.05
TACAGCCATT	1.07
GTATGTCAGA	0.982
GCTTATTTGT	1
CCGCATGTAG	3.72
TTTCAAAATC	1.05
CCGCTCTTCG	1.13
GATAGTCTGT	0.98
TTGTTGTCGT	0.995
GGGAGGCCTT	1.02
ATAGACGACT	1.05
GGGATATCTC	0.997

Sequence	switch fluorescence ratio
ACTTATGGTC	1.04
CGTGCAGTAG	1.47
GCCTTATTAT	1.02
GATTCTAGT	0.989
CAACCTAGCG	1.01
GTGATTCTGA	1.01
TTATACTAGG	1.01
ATATAACGGG	1.03
AACGTCGCTC	1.05
ACCCATATG	1.08
CCGGATTAGT	1.18
CATAGTAGCA	1.01
ACCTTGTAGC	1.07
AAAGATA	0.988
AGCGGCGCGG	0.968
ACCGCGTCAA	1.21
CCCCACCCT	1.03
AGAATGGGCC	0.986
GATTAGCGTA	1.04
ATAGTCGTG	0.989
ATAGGCGTAG	1.03
GCGTATATCA	0.989
ACCTGGTAAA	1.01
CGTAAAGTTA	1.05

Sequence	switch fluorescence ratio
GCACGGGGAG	0.984
CGGCCCTTTT	1.02
CTGAGCCTCA	1
GGTCGTGATG	0.994
GCTGTAGG	1.03
TCGTCATCGT	0.959
AGGAAAATA	1.05
TCCCGCGCCG	1.17
GGGAGATGCT	0.98
CGGTGATGGC	0.956
AATTTTACCC	1.09
TGAATTAGGG	1.03
GATGATGATA	1.03
GTTCTAGCAT	1.02
TAACTCGCCT	1.06
CATCGTAGTT	1.03
GCCGAAAGTG	1.02
GTAGCACTGG	1.45
AGCGGTTACT	1.11
CGAACACCTG	1.04
TAGGCCGACG	1.01
GCCATACGG	1.02
AGAGCCCGCT	1.01
AGTGAGCGCC	0.98

Sequence	switch fluorescence ratio
GTATGTGGTC	1
ACCATTTTT	0.986
GCTTGCTTG	0.99
TACTAGCATT	1.05
GCTGTGCATT	1.02
GGGAAAGGA	1.01
GAGTTAAGGC	0.938
AGGCGTTATG	0.987
GGTTTCG	0.952
AGTGCATTAG	1.04
ACAGTAAAAG	1.25
AACCTGCAAC	1.82
TTTTGATGAA	0.996
TAAGCGAGCT	0.989
CTTGTAAAGA	0.995
CATGCATTTA	1.03
GGGCTCGGTC	1.05
GCCCGTTAGG	0.987
GGGGTCTAGA	0.993
ACGAGTAAGT	1.02
CACCGTAGCT	1.43
AAAAATTGCG	1.01
TTGTCCCTTG	1.01
GAGATTTCGA	0.989

Sequence	switch fluorescence ratio
TTTGAACGAT	0.942
TGGTGCAGCG	0.963
CTAAGTTGCA	0.997
CTATGAACTT	0.994
TACACACAAG	1.33
TTAGATCCTG	1.03
CGGTGTTTTG	1.02
ATGTCATCAC	1.1
GGAAAATAAC	1.01
AAGGCAACTA	1.03
CGGGACCGTA	0.977
AGCAGCTGCA	1.02
GAGGCTCTCT	0.998
GTGATCAGGA	1
GGGCTTATCT	0.966
GAGTTTACCA	1
AGGG	1.02
AATCGGGTTA	0.977
CTTAGCTTTT	1.07
